Measured values as given in a collection of fitness landscapes (doi:10.1016/j.celrep.2020.107928).
Whole data set: some 81,000 sequences, median “one-hybrid fitness for binding NBS DNA” near -0.1, cut for the highest 2% near 0.36. This is one part of the list.

B1: Caulobacter ParB omega fusion; a variant is named by its letters at X, in order, B8GW30 (parent)
chain: MESVVVGEPGMSEGRRGLGRGLSALLGEVDAAPAQAPGEQLGGSREAPIEILQRNPDQPRRTFREEDLEDLSNSIREKGVLQPILVRPSPDTAGEYQIVAGERAWRAAQRAGLKTVPIMVRELDDLAVLEIGIIENVQRADLNVLEEALSYKVLMEKFERTQENIAQTIGKSXSHVANXMRLLXLPDEVQSYLVSGELTAXHARAIAAAADPVALAKQIIEGGLSVRETEALARKAPNLSAGKSKGGRPPRVKDTDTQALESDLSSVLGLDVSIDHRGSTGTLTITYATLEQLDDLCNRLTRGI

Variants of: B1
Assay: one-hybrid fitness for binding NBS DNA (the Noc-binding site; scaled: cognate 1, non-cognate 0); higher = stronger binding
Conditions: with NBS DNA site
Outline: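 Fitness here means the log change in variant-to-wild-type read ratio between plasmids sequenced before and after selection. That scale was set so cognate equals 1 and non-cognate equals 0. The selection was a bacterial one-hybrid screen of Caulobacter ParB libraries, four specificity codons randomised, in E. coli USO carrying a HIS3 reporter with the site 19 bp from the promoter, grown 48 hours at 37°C on M9-minus-histidine with 0.1 mM IPTG and 5 mM 3-AT.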

one-hybrid fitness for binding NBS DNA, 0.394:
QYKQ

one-hybrid fitness for binding NBS DNA, ≤ 0.2:
TGHI
GGGR
VQPG
FERC
FRAQ
SPAL
LWLS
HLVM
DDNG
GCMQ
FPDG
QGSH
RGRL
LMPM
TAYW
MAFV
GYCR
KPHF
NDWV
WIHC
KLDT
IHGD
MTHT
QSEA
IDTM
SVRI
LSAW
RGRK
RNCN
TLDF
QMSG
VNAC
RDWM
DALT
ALQE
QLAL
VGSL
DDRN
LVRI
ALAR
TSQN
TCKQ
CNAC
LMRV
HIRC
GQSG
PMSN
RVHH
APIG
NVTG
GMSA
VQVT
HKCS
MSSF
DHSK
NSNI
WETR
ETSY
SFAL
TKQQ
GSIP
DGSA
NRFA
WSFR
PIGY
EFKC
QITC
YALG
MFIR
ADHL
QSPP
QMDF
HQPV
HTRY
THVC
AYWI
SNHR
NIGS
TVVY
PNER
YCLR
SKCR
STIL
LNRS
EYHD
SKIM
PHGE
RYRK
SAYQ
KLRC
IKCS
HING
CTCI
GDMC
TAEM
SPLI
AIHV
ILQN
LAWF
RNYS
NPLM
GSGS
SYGT
AQPL
KWLS
KCTY
FWRG
TEKN
IGSL
THAH
YCRS
PDSD
VTML
DSPV
HPME
IVGC
PADH
VMQF
KSPT
AHVW
VQVF
SHVL
DSKS
ADTL
NLLY
TSIG
NNQI
MITL
SASS
EHTV
LHHV
DMAV
METR
ERAD
SEES
AYGR
LPTD
AMGT
KAPG
CVHS
DGSF
IGVF
TTLF
SIGG
EHRL
THYE

one-hybrid fitness for binding NBS DNA, 0.34:
RIYT

one-hybrid fitness for binding NBS DNA, 0.384:
RITS

one-hybrid fitness for binding NBS DNA, 0.226:
QAVS

one-hybrid fitness for binding NBS DNA, 0.252:
RTRK

one-hybrid fitness for binding NBS DNA, 0.259:
IQKR

one-hybrid fitness for binding NBS DNA, 0.46:
KCRR
